The chains are these.
T1: RBFOX1 RRM RbFoxmut (Fox-RRM*) (Homo sapiens, UniProt Q9NWB1 109-208, R118D;E147R;N151S;E152T)
T1 sequence: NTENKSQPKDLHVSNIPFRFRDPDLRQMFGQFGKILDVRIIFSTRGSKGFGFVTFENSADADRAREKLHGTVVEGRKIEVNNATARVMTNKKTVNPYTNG

B1: AGCGUGC (DNA:RNA)
RNA: GGGAGACCGGAAUUCAGAUUGUCCAGCGUGCUUAAAUCCCGUCGUAGCCACCA
DNA 1: CAATCTGAATTCCGGTCTCCC
DNA 2: TGGTGGCTACGACGGGATT
B2: UCCUCGU (DNA:RNA)
RNA: B1 RNA with A25U, G26C, G28U, U29C, C31U
DNA 1: CAATCTGAATTCCGGTCTCCC
DNA 2: TGGTGGCTACGACGGGATT
B3: CAAUAGU (DNA:RNA)
RNA: B1 RNA with A25C, G26A, C27A, G28U, U29A, C31U
DNA 1: CAATCTGAATTCCGGTCTCCC
DNA 2: TGGTGGCTACGACGGGATT
B4: GAUGUUA (DNA:RNA)
RNA: B1 RNA with A25G, G26A, C27U, G30U, C31A
DNA 1: CAATCTGAATTCCGGTCTCCC
DNA 2: TGGTGGCTACGACGGGATT
B5: UUCGGUA (DNA:RNA)
RNA: B1 RNA with A25U, G26U, U29G, G30U, C31A
DNA 1: CAATCTGAATTCCGGTCTCCC
DNA 2: TGGTGGCTACGACGGGATT
B6: GACGACA (DNA:RNA)
RNA: B1 RNA with A25G, G26A, U29A, G30C, C31A
DNA 1: CAATCTGAATTCCGGTCTCCC
DNA 2: TGGTGGCTACGACGGGATT
B7: CAUUUUG (DNA:RNA)
RNA: B1 RNA with A25C, G26A, C27U, G28U, G30U, C31G
DNA 1: CAATCTGAATTCCGGTCTCCC
DNA 2: TGGTGGCTACGACGGGATT
B8: GCCCCCA (DNA:RNA)
RNA: B1 RNA with A25G, G26C, G28C, U29C, G30C, C31A
DNA 1: CAATCTGAATTCCGGTCTCCC
DNA 2: TGGTGGCTACGACGGGATT
B9: UAAACGA (DNA:RNA)
RNA: B1 RNA with A25U, G26A, C27A, G28A, U29C, C31A
DNA 1: CAATCTGAATTCCGGTCTCCC
DNA 2: TGGTGGCTACGACGGGATT
B10: GUCGCGC (DNA:RNA)
RNA: B1 RNA with A25G, G26U, U29C
DNA 1: CAATCTGAATTCCGGTCTCCC
DNA 2: TGGTGGCTACGACGGGATT
B11: UUAUAUG (DNA:RNA)
RNA: GGGAGACCGGAAUUCAGAUUGUCCUUAUAUGUUAAAUCCCGUCGUAGCCACCA
DNA 1: CAATCTGAATTCCGGTCTCCC
DNA 2: TGGTGGCTACGACGGGATT
B12: GCAGUCC (DNA:RNA)
RNA: B1 RNA with A25G, G26C, C27A, G30C
DNA 1: CAATCTGAATTCCGGTCTCCC
DNA 2: TGGTGGCTACGACGGGATT
B13: UCGCCCC (DNA:RNA)
RNA: B1 RNA with A25U, G26C, C27G, G28C, U29C, G30C
DNA 1: CAATCTGAATTCCGGTCTCCC
DNA 2: TGGTGGCTACGACGGGATT
B14: CCGAUUU (DNA:RNA)
RNA: B1 RNA with A25C, G26C, C27G, G28A, G30U, C31U
DNA 1: CAATCTGAATTCCGGTCTCCC
DNA 2: TGGTGGCTACGACGGGATT
B15: GAGUACU (DNA:RNA)
RNA: B11 RNA with U25G, U26A, A27G, U30C, G31U
DNA 1: CAATCTGAATTCCGGTCTCCC
DNA 2: TGGTGGCTACGACGGGATT
B16: CCUUGUA (DNA:RNA)
RNA: B11 RNA with U25C, U26C, A27U, A29G, G31A
DNA 1: CAATCTGAATTCCGGTCTCCC
DNA 2: TGGTGGCTACGACGGGATT
B17: UCUAGUU (DNA:RNA)
RNA: B11 RNA with U26C, A27U, U28A, A29G, G31U
DNA 1: CAATCTGAATTCCGGTCTCCC
DNA 2: TGGTGGCTACGACGGGATT
B18: GGCCCGU (DNA:RNA)
RNA: B1 RNA with A25G, G28C, U29C, C31U
DNA 1: CAATCTGAATTCCGGTCTCCC
DNA 2: TGGTGGCTACGACGGGATT
B19: ACGGACA (DNA:RNA)
RNA: B1 RNA with G26C, C27G, U29A, G30C, C31A
DNA 1: CAATCTGAATTCCGGTCTCCC
DNA 2: TGGTGGCTACGACGGGATT
B20: CCUUAUA (DNA:RNA)
RNA: B11 RNA with U25C, U26C, A27U, G31A
DNA 1: CAATCTGAATTCCGGTCTCCC
DNA 2: TGGTGGCTACGACGGGATT
B21: UGCAGUC (DNA:RNA)
RNA: B1 RNA with A25U, G28A, U29G, G30U
DNA 1: CAATCTGAATTCCGGTCTCCC
DNA 2: TGGTGGCTACGACGGGATT
B22: CGAUAUG (DNA:RNA)
RNA: B11 RNA with U25C, U26G
DNA 1: CAATCTGAATTCCGGTCTCCC
DNA 2: TGGTGGCTACGACGGGATT
B23: AAAGCAG (DNA:RNA)
RNA: B1 RNA with G26A, C27A, U29C, G30A, C31G
DNA 1: CAATCTGAATTCCGGTCTCCC
DNA 2: TGGTGGCTACGACGGGATT
B24: GUGUUCU (DNA:RNA)
RNA: B11 RNA with U25G, A27G, A29U, U30C, G31U
DNA 1: CAATCTGAATTCCGGTCTCCC
DNA 2: TGGTGGCTACGACGGGATT
B25: CCGUUCU (DNA:RNA)
RNA: B1 RNA with A25C, G26C, C27G, G28U, G30C, C31U
DNA 1: CAATCTGAATTCCGGTCTCCC
DNA 2: TGGTGGCTACGACGGGATT
B26: ACGAAUA (DNA:RNA)
RNA: B11 RNA with U25A, U26C, A27G, U28A, G31A
DNA 1: CAATCTGAATTCCGGTCTCCC
DNA 2: TGGTGGCTACGACGGGATT
B27: CGUAGUU (DNA:RNA)
RNA: B1 RNA with A25C, C27U, G28A, U29G, G30U, C31U
DNA 1: CAATCTGAATTCCGGTCTCCC
DNA 2: TGGTGGCTACGACGGGATT
B28: GGCAAAA (DNA:RNA)
RNA: B1 RNA with A25G, G28A, U29A, G30A, C31A
DNA 1: CAATCTGAATTCCGGTCTCCC
DNA 2: TGGTGGCTACGACGGGATT
B29: GAAGAGC (DNA:RNA)
RNA: B1 RNA with A25G, G26A, C27A, U29A
DNA 1: CAATCTGAATTCCGGTCTCCC
DNA 2: TGGTGGCTACGACGGGATT
B30: UGUAGUG (DNA:RNA)
RNA: B11 RNA with U26G, A27U, U28A, A29G
DNA 1: CAATCTGAATTCCGGTCTCCC
DNA 2: TGGTGGCTACGACGGGATT
B31: CGCCAGG (DNA:RNA)
RNA: B1 RNA with A25C, G28C, U29A, C31G
DNA 1: CAATCTGAATTCCGGTCTCCC
DNA 2: TGGTGGCTACGACGGGATT

In publication PMC9911399, “Two distinct binding modes provide the RNA-binding protein RbFox with extraordinary sequence specificity” one finds binding signal data, which are given here for 31 molecules.

Positions count from the first letter of the chain named. The list shows a part of the results.

This assay concerns the target T1, RBFOX1 RRM RbFoxmut (Fox-RRM*). In words: EMSA; HiTS-Eq, 1 nM pool, 10 min; buffer printed only for the single-RNA assays: 10 mM Tris pH 7.5, 150 mM NaCl, 3.4 mM EDTA, 0.001% NP-40, 30 C. To be noted: tags: His6 N-terminal (pET28a); label: 5' 32P. An outline of the steps:
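These values rest on relative association constants, computed from read-count changes of each RNA species versus the control reaction and normalised to the cognate motif. Reads came from free RNA recovered by 8% native PAGE after purified RbFox RRM (wild type or mutant) at increasing concentrations was equilibrated for 10 min in 50 µL with 1 nM of a 5′-radiolabelled pool with 7 randomized nucleotides and DNA-annealed flanks.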
(A gel shift assay detects complexes by their altered migration in electrophoresis.)
Turning to B1, the binding signal is 0.131 KA relative to UGCAUGU.

As for B2, the binding signal is 0.124 KA relative to UGCAUGU.

Take B3: the binding signal is 0.103 KA relative to UGCAUGU.

As for B4, the binding signal is 0.129 KA relative to UGCAUGU.

For the molecule B5, the binding signal is 0.0815 KA relative to UGCAUGU.

Turning to B6, the binding signal was 0.0517 KA relative to UGCAUGU.

For B7, the binding signal is 0.13 KA relative to UGCAUGU.

For B8, the binding signal was 0.0573 KA relative to UGCAUGU.

For B9, the binding signal was 0.036 KA relative to UGCAUGU.

Consider B10, for which the binding signal is 0.123 KA relative to UGCAUGU.

Take B11: the binding signal is 0.148 KA relative to UGCAUGU.

Turning to B12, the binding signal is 0.0533 KA relative to UGCAUGU.

For B13, the binding signal was 0.07 KA relative to UGCAUGU.

As for B14, the binding signal is 0.0707 KA relative to UGCAUGU.

For the molecule B15, the binding signal was 0.0757 KA relative to UGCAUGU.

As for B16, the binding signal is 0.206 KA relative to UGCAUGU.

B17: the binding signal was 0.109 KA relative to UGCAUGU.

With B18, the binding signal was 0.133 KA relative to UGCAUGU.

For B19, the binding signal is 0.0545 KA relative to UGCAUGU.

In the case of B20, the binding signal is 0.136 KA relative to UGCAUGU.

Turning to B21, the binding signal was 0.115 KA relative to UGCAUGU.

For B22, the binding signal was 0.159 KA relative to UGCAUGU.

On to B23, for which the binding signal is 0.0873 KA relative to UGCAUGU.

For B24, the binding signal is 0.0714 KA relative to UGCAUGU.

For B25, the binding signal is 0.0688 KA relative to UGCAUGU.

Regarding B26, the binding signal was 0.127 KA relative to UGCAUGU.

In the case of B27, the binding signal was 0.141 KA relative to UGCAUGU.

For the molecule B28, the binding signal is 0.0682 KA relative to UGCAUGU.

On to B29, for which the binding signal is 0.0784 KA relative to UGCAUGU.

As for B30, the binding signal is 0.682 KA relative to UGCAUGU.

For the molecule B31, the binding signal was 0.0982 KA relative to UGCAUGU.
